According to PubChem BioAssay AID488969 (Vanderbilt High Throughput Screening Facility, 2010):
Over roughly 110,000 compounds, “z-score” has its median near -0.1; the highest 2% begin near 2. This is one part of the list. Calls of active or inactive are those of the source.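 The calls were made as follows: active = z-score in the third read window above 3 or below -3; inactive = the rest.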

molecular target: Metabotropic glutamate receptor 8 (Rattus norvegicus) (UniProt P70579); assay: mGluR8 Gi/Go-coupled signaling modulation – cell-based, rat, thallium flux, HTS, primary screen (AID 488969); settings: HEK293 rat mGluR8, GIRK (G protein-gated inwardly rectifying potassium channel) thallium flux, FluoZin2; at 10 µM; stronger effect = higher value; submaximal glutamate (EC20) added with thallium
Chain of UniProt P70579 (P70579 whole entry, looked up): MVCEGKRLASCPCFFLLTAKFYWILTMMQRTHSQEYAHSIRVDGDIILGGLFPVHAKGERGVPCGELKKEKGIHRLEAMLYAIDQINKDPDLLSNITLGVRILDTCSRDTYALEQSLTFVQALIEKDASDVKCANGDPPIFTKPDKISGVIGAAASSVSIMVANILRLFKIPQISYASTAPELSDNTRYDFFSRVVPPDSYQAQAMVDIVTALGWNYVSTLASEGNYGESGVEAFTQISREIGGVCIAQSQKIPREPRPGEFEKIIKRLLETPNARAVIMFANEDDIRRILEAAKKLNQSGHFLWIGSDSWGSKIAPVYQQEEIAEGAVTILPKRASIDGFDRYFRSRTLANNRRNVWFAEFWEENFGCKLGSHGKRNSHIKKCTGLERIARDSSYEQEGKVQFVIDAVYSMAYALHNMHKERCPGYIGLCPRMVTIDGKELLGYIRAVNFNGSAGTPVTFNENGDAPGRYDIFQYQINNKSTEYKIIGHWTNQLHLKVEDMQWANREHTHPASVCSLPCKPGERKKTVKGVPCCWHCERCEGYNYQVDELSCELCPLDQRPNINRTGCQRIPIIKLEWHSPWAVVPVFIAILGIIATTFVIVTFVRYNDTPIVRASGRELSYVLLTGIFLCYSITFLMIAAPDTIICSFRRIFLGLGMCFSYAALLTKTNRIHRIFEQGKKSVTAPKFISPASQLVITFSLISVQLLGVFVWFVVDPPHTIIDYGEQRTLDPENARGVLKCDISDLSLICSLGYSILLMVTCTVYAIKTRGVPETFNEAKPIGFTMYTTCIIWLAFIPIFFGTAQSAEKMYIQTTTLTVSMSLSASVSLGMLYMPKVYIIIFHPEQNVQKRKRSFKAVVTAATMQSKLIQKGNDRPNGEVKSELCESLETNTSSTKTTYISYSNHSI

| Structure (SMILES) | z-score |
| --- | --- |
| CCCCNC(=O)Nc1ccccc1C(=O)NCc1ccco1 | 0.486 |
| O=C(CCc1ccc(S(=O)(=O)NCCc2ccccc2)cc1)Nc1ccc2c(c1)OCCO2 | -0.104 |
| COC(=O)c1cc(COc2ccc3oc(C)c(C(=O)OC(C)C)c3c2)c(C)o1 | 0.18 |
| CCNc1nc(NCC)nc(SCCOC(=O)Nc2ccccc2)n1 | -0.236 |
| CCn1c2ccccc2c2nc3ccccc3nc21 | -0.636 |
| Cc1nc2ccccc2n1CC(=O)NCCN1CCCC1 | 0.333 |
| C/C(=N\NC(=O)CSCc1ccc(Cl)cc1)c1ccc2c(c1)OCCO2 | -0.46 |
| O=S1CC/C(=N\O)c2ccccc21 (centres undefined) | -0.139 |
| COc1ccc(C(=O)NCC(c2cccnc2)N2CCN(c3ccc(F)cc3)CC2)cc1OC (centres undefined) | 0.582 |
| O=C1CC(c2ccco2)Cc2nc(NCC3CCCO3)ncc21 (centres undefined) | 0.0578 |
| CCn1c(=O)cc(OCC(=O)N2CCCC2)c2ccccc21 | -0.13 |
| O=C(NCc1ccc(F)cc1)c1cc2n(n1)C(C(F)(F)F)CC(C1CC1)N2 (centres undefined) | -0.33 |
| N#C/C(=C\c1ccc(-c2ccc(F)cc2)o1)C(=O)Nc1nc(-c2cccs2)cs1 | -0.0764 |
| COc1cc(/C=N/NC(=O)c2cccc([N+](=O)[O-])c2)ccc1OCc1ccc(C)cc1 | -0.354 |
| Cc1ccc2nc(NC(=O)Cn3cc4c(n3)CCCCC4)sc2c1 | 0.178 |
| COc1ccc2c(c1OC)C(=O)N1N=C(c3ccc(Br)cc3)CC21 (centres undefined) | -1.04 |
| CN(C)c1ccc(NC(=S)NCC2CCCO2)cc1 (centres undefined) | 0.0583 |
| O=C(CCc1ccccc1)NNC(=O)c1ccco1 | 0.0453 |
| O=c1ccc(Oc2nc(N3CCOCC3)nc(N3CCOCC3)n2)nn1-c1ccccc1 | 0.115 |
| COc1cc(/C(C)=N/NC(=O)Cc2c(C)[nH][nH]c2=O)ccc1O | -0.267 |
| CCOC(=O)C1CCN(C(=O)Nc2cccc(Cl)c2)CC1 | -0.63 |
| COc1ccccc1N1CCN(C(=O)CSc2ccc3c(C)cc(C)nc3n2)CC1 | -0.191 |
| COc1ccccc1N1CCN(CC(=O)N2N=CCC2c2ccccc2)CC1 (centres undefined) | -0.0236 |

| Structure (SMILES) | z-score |
| --- | --- |
| Cc1cccc(NC(=O)CSc2nnc(CSc3nc(C)cc(C)n3)o2)c1 | 1.21 |
| Cc1ccc(C(C)C)c(OCC(=O)c2c(O)c3ccccc3oc2=O)c1 | 0.32 |
| CCOC(=O)N1CCN(S(=O)(=O)c2ccc(OCC)c(C)c2)CC1 | 0.489 |
| Clc1ccc(-c2nc3ccccc3n2OCc2ccccc2)cc1 | -0.134 |
| Cc1ccccc1NC1=C(Cl)C(=O)OC1OC(=O)c1ccco1 (centres undefined) | active: -3.39 |
| O=C(CNC(=O)OCc1ccccc1)NC1CCCCCCC1 | -0.0746 |
| CC(=O)N(C)c1ccc(NC(=S)Nc2cccc3ccccc23)cc1 | 0.0902 |
| O=C1Nc2ccccc2C12OCCO2 | -0.0845 |
| CCCOc1ccc(C(=O)NCC(c2cccs2)N(C)C)cc1OC (centres undefined) | -0.44 |
| Nc1ccccc1NC(=O)c1ccccc1 | -0.999 |
| COC(=O)c1sccc1-c1ccc(C(=O)Nc2ccccc2)o1 | -0.28 |
| O=C(CNc1ccc(Br)cc1)c1ccccc1 | 0.0045 |
| Cc1ccc(-c2nnc(SCC(=O)Nc3ccc(S(=O)(=O)N4CCCCCC4)cc3)o2)cc1 | 0.22 |
| Cn1c(=N)c(S(=O)(=O)c2ccccc2)cc2c(=O)n3ccccc3nc21 | -0.781 |
| COc1cccc(Nc2nc(-c3sc(NC(=O)CC(C)C)nc3C)cs2)c1 | -0.392 |
| Cc1cc(C)cc(C(=O)NCCn2cc(SCC(=O)N3CCOCC3)c3ccccc32)c1 | 0.0769 |
| CCOC(=O)c1c(NC(=O)CN2C(=O)NC3(CCC(C)CC3)C2=O)sc(C)c1-c1ccc(C)cc1 (centres undefined) | -0.156 |
| O=C(NC1CCS(=O)(=O)C1)c1ccc(S(=O)(=O)NCC2CCCO2)cc1 (centres undefined) | -0.226 |
| COc1ccc(C(=O)/C=C/Nc2ccc([N+](=O)[O-])cc2)cc1 | 0.479 |
| CN1CCN(/C=N/c2c(C#N)cnn2-c2ccccc2)CC1 | 0.237 |
| COc1cc2c(cc1NS(=O)(=O)N1CCCC1)oc1ccccc12 | -0.51 |
| O=C(NC(=S)NCCN1CCOCC1)c1cccc(Cl)c1 | -0.0174 |
| COC(=O)C1CCN(C(=O)C(C)Oc2ccc(Cl)cc2Cl)CC1 (centres undefined) | 0.0998 |

| Structure (SMILES) | z-score |
| --- | --- |
| COc1ccc(/C=N/n2c(N)c(S(=O)(=O)c3cccs3)c3nc4ccccc4nc32)cc1OC | 0.265 |
| Cc1cccnc1-n1c(CCN2C(=O)c3ccccc3C2=O)nc2ccccc2c1=O | -0.234 |
| COc1cccc(CNCCN2CCOCC2)c1OC | -0.124 |
| COc1cccc(C(=O)N/N=C(/c2ccccc2)c2ccccn2)c1 | -0.131 |
| CCCCCCCCSc1n[nH]c(N)n1 | 0.0327 |
| CCOC(=O)c1c(N)sc(C(O)(C(F)(F)F)C(F)(F)F)c1-c1ccccc1 | -0.158 |
| O=C(C1CCC1)N1CCc2cc(S(=O)(=O)NC3CCCC3)ccc21 | 0.055 |
| N#C/C(=C\c1ccc(N2CCOCC2)o1)C(=O)N1CCOCC1 | -0.912 |
| Cc1nn(C)cc1CNC(=O)c1cnn2c(C(F)F)cc(C3CC3)nc12 | 0.198 |
| O=C(CSc1ccccn1)N/N=C/c1cccc([N+](=O)[O-])c1 | 0.531 |
| C=CCn1c(-c2ccoc2)n[nH]c1=S | -0.0638 |
| Cc1cc(C(=O)Nc2c(C)nn(Cc3ccccc3)c2C)on1 | -0.666 |
| CC(=O)c1ccc(NC(=O)CN2C(=O)COc3ccc(Cl)cc32)cc1 | -0.5 |
| O=C(COC(=O)Cc1ccc(S(=O)(=O)N2CCOCC2)s1)Nc1ccc2c(c1)OCO2 | -0.785 |
| COc1ccc(NC(=O)C(CCSC)N2C(=O)c3ccccc3C2=O)cc1 (centres undefined) | 0.508 |
| Cc1ccc(-c2cn(-c3ccccc3)c(SCC(N)=O)n2)cc1C | -1.06 |
| COc1cccc(C(=O)Nc2ccc(N3CCN(S(C)(=O)=O)CC3)cc2)c1 | -0.135 |
| O=C(N/N=C/c1cccs1)/C(=C/c1ccccc1)NC(=O)c1ccccc1 | 0.104 |
| CCSc1nnc2n1C(C)(C)Cc1ccccc1-2 | -0.208 |
| O=C(Cc1ccc(F)cc1)Nc1c2c(nn1-c1cccc(Cl)c1)CS(=O)C2 (centres undefined) | 0.147 |
| Cc1ccc(NC(=O)COC(=O)c2ccc3c(c2)OCO3)cc1S(=O)(=O)N1CCCCC1 | -0.401 |
| O=C(O)CN1C(=O)C2C3CC(C2C1=O)C1C(c2ccccc2)c2sc(=O)[nH]c2SC31 (centres undefined) | -0.358 |
| CCCc1cc(=O)[nH]c(SCC(=O)Nc2nonc2N)n1 | -0.434 |

| Structure (SMILES) | z-score |
| --- | --- |
| Cc1nn(C)c(C)c1NC(=O)CSc1nc(Cc2ccccc2)nc2c1cnn2-c1ccccc1 | 0.55 |
| CCC1(C)Cc2c(sc3nc4n(c(=O)c23)CCCS4)CO1 (centres undefined) | -0.166 |
| CCCN(CCC)c1ccc(CC(=O)NC(C)Cc2ccccc2)cc1 (centres undefined) | -0.226 |
| Cc1nnc(SCC(=O)NCc2ccccc2Cl)n(N)c1=O | -0.182 |
| CC1CCCCC1NC(=O)CCCc1nc2ccccc2c(=O)[nH]1 (centres undefined) | 0.335 |
| Cc1cc2nc(CCN(C(=S)NCC(C)C)C3CCCC3)[nH]c2cc1C | 0.351 |
| CCn1c2ccccc2c2cc(NC(=O)c3cccc(OC)c3)ccc21 | -1.39 |
| COc1ccc(CNC(=O)c2cc(-c3cccs3)on2)cc1 | 0.49 |
| Cc1ccc(NC(=O)C2CCCNC2=O)nc1 (centres undefined) | -0.231 |
| Cc1ccsc1/C=N/NC(=O)Cn1cnc2ccccc21 | 0.0545 |
| Cc1cc(=O)oc(C)c1C(=O)N[C@@H]1CCCCNC1=O | 0.148 |
| COc1cc(-c2nnc(SCC(=O)c3ccc(C)cc3)o2)cc(OC)c1OC | -0.131 |
| CCCn1nnc(NC(=O)c2ccc(OCC)c(Cl)c2)n1 | -0.225 |
| COc1ccc(CC(C#N)(CO)c2nc3ccccc3[nH]2)cc1 (centres undefined) | -0.102 |
| CCCC(=O)Nn1cnc2c(c1=O)C1(CCCC1)Cc1ccccc1-2 | -0.338 |
| CC1CCCCN1S(=O)(=O)c1ccc(S(=O)(=O)NCCc2ccncc2)cc1 (centres undefined) | -0.0388 |
| O=C(Nc1ccccc1-c1nc2ccccc2s1)c1ccc(Br)o1 | -0.0136 |
| O=C(CCl)NCCCCCCCCCNC(=O)CCl | 0.0833 |
| CCN1CCN(CCCNC(=O)C(NC(=O)C2CCC(C)CC2)C(C)C)CC1 (centres undefined) | -0.0333 |
| CCN(CC)S(=O)(=O)c1ccc(-c2nnc(SCC(=O)Nc3nnc(C)s3)n2CC)cc1 | -0.472 |
| COc1ccc(Br)cc1S(=O)(=O)N1CC(C)OC(C)C1 (centres undefined) | -0.685 |
| COC(/C=C/Nc1ccc(OC)cc1)=C(C#N)C#N | -0.0812 |
| CCn1c(SCC(=O)N2c3ccccc3CC2C)nnc1-c1ccco1 (centres undefined) | -0.737 |

| Structure (SMILES) | z-score |
| --- | --- |
| CCCC(=O)OCC(=O)Nc1cc(C(C)(C)C)nn1-c1ccccc1 | 0.676 |
| O=C(Nc1cccnc1)Nc1ccc(Br)cc1Cl | -0.0574 |
| CCN1CCCC1CNC(=O)CS(=O)(=O)Cc1nc(-c2ccccc2C)oc1C (centres undefined) | 1.21 |
| NCCCSC1=NCCCN1 | 0.28 |
| O=C(COC(=O)c1ccc2c(c1)C(=O)N(Cc1ccncc1)C2=O)Nc1ccccc1[N+](=O)[O-] | -0.521 |
| CCC(=O)Nc1ccc(C(=O)NNC(=O)COc2cc(C)ccc2C)cc1 | 0.058 |
| CSc1nc(C)cc(C)c1C(N)=O | -0.0617 |
| O=C(Cc1cccc2ccccc12)NCC1CCCO1 (centres undefined) | 0.0236 |
| CCN(CC)C(=O)CN1CCN(c2ccccc2F)CC1 | 0.463 |
| CCCCn1ccnc1C(=O)c1cc(S(=O)(=O)N2CCOCC2)ccc1C | -0.0858 |
| N#Cc1c(NC(=S)NC(=O)C2CCCC2)sc2c1CCCCC2 | 0.0233 |
| CC(=O)c1cccc(NC(=O)CN2C(=O)C3C4C=CC(C4)C3C2=O)c1 (centres undefined) | 0.0311 |
| CC(O)c1c(OCc2ccccc2)ncnc1OCc1ccccc1 (centres undefined) | -0.29 |
| CCCc1cc(=O)[nH]c(SCC(=O)c2ccc3c(c2)OCCO3)n1 | -0.174 |
| Cn1c(=O)oc2cc(S(=O)(=O)NCc3ccccc3)ccc21 | 0.611 |
| CCOC(=O)c1oc2cc(O)cc(C)c2c(=O)c1-c1cscn1 | 0.0192 |
| CCCCC(=O)Nc1ccc(NC(=O)CCCC)nc1 | 1.64 |
| C/C=C/c1ccc(OCCOc2ccc(C=O)cc2)c(OC)c1 | -0.43 |
| Cc1ccc(CS(=O)(=O)CCC(=O)NCCC(C)C)cc1 | -0.189 |
| O=S(=O)(c1ccccc1)c1ccccc1/C=N\O | -1.52 |
| Cc1cc([N+](=O)[O-])ccc1NC(=O)/C=C/c1cccs1 | -0.0372 |
| CCC(C)Sc1nc(O)c(Cc2ccccc2)c(=O)[nH]1 (centres undefined) | 0.789 |
